Legend:
[1] = target: T1, Biotin-labeled FcRn proteins (ACRO Biosystem, Cat. No. FCM-H8286) (UniProt P55899 part only; P61769 part only); test: ELISA at pH 7.0, antibody coated, biotin-labeled FcRn titrated
[2] = target: T1, Biotin-labeled FcRn proteins (ACRO …); test: ELISA at pH 6.0, antibody coated, biotin-labeled FcRn titrated

T1 sequence (P55899 24-297 limits assumed, chain 1 of 2): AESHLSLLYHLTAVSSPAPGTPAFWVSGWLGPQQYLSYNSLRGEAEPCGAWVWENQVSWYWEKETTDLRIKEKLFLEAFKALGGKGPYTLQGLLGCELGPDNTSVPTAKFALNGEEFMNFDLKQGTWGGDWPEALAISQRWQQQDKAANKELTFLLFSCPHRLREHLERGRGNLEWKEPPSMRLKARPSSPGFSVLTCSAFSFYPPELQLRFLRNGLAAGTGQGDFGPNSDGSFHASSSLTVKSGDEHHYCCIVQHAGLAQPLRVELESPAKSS
T1 sequence (P61769 21-119 limits assumed, chain 2 of 2, further chain): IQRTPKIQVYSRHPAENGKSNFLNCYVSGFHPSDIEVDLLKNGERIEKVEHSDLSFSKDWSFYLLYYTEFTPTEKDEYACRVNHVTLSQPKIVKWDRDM

Row | Binder | EC50 [1] [µg/mL] | EC50 [2] [µg/mL]
1 | Bispecific antibody AB7K5 (Anti-Her2×CD3, scFv-mFc-scFv, single-chain bivalent) (bispecific antibody) [about 120 residues left out here]GGGGSGGGGSGGGGS[about 100 residues left out here]DKTHTSPPSPAPEAAGGPSVFLFPPKPKDQLMISRTPEVTCVVVDVSHEDPEVKFNWYVDGVEVHNAKTKPREEQYASTYRVVSVLTVLHQDWLNGKEYKCKVSNKALPASIEKTISKAKGQPREPQVYTLPPSRDELTKNQVSLRCHVKGFYPSDIAVEWESNGQPENNYKTTPPVLDSDGSFFLYSTLTVDKSRWQQGNVFSCSVLHEALHNHYTQKSLSLSPGGGGGGGSGGGGSGGGGSSSSSKAPPPSEVQLLESGGGLVQPGGSLKLSCAASGFTFNTYAMNWVRQAPGKGLEWVARIRSKYNNYATYYADSVKDRFTISRDDSKNTAYLQMNNLKTEDTAVYYCVRHGNFGNSYVSWFAYWGQGTLVTVSSGGGGSGGGGSGGGGSELVVTQEPSLTVSPGGTVTLTCRSSTGAVTTSNYANWVQQKPGQAPRGLIGGTNKRAPGTPARFSGSLLGGKAALTLSGVQPEDEAEYYCALWYSNLWVFGGGTKLTVL | 13.4 | 1.71
2 | Bispecific antibody AB7K7 (Anti-Her2×CD3, scFv-scFv-Fc, tetravalent homodimer) (bispecific antibody) [about 120 residues left out here]GGGGSGGGGSGGGGS[about 100 residues left out here]GGGGGGSGGGGSGGGGSSSSSKAPPPSEVQLLESGGGLVQPGGSLKLSCAASGFTFNTYAMNWVRQAPGKGLEWVARIRSKYNNYATYYADSVKDRFTISRDDSKNTAYLQMNNLKTEDTAVYYCVRHGNFGNSYVSWFAYWGQGTLVTVSSGGGGSGGGGSGGGGSELVVTQEPSLTVSPGGTVTLTCRSSTGAVTTSNYANWVQQKPGQAPRGLIGGTNKRAPGTPARFSGSLLGGKAALTLSGVQPEDEAEYYCALWYSNLWVFGGGTKLTVLDKTHTCPPCPAPEAAGGPSVFLFPPKPKDQLMISRTPEVTCVVVDVSHEDPEVKFNWYVDGVEVHNAKTKPREEQYASTYRVVSVLTVLHQDWLNGKEYKCKVSNKALPASIEKTISKAKGQPREPQVYTLPPSRDELTKNQVSLTCLVKGFYPSDIAVEWESNGQPENNYKTTPPVLDSDGSFFLYSKLTVDKSRWQQGNVFSCSVLHEALHNHYTQKSLSLSPG | 4.84 | 0.463
